From PubChem BioAssay AID651820 (National Center for Advancing Translational Sciences (NCATS), 2012)
Hit rate of the full screen: of about 340,000 compounds, about 12,000 (3.5%) were called active. Inconclusive results, whose numbers are uncertain, are shown with a selection of clear calls. Calls come from the whole dose curve; as a rule, active = well fitted inhibition curve with a large enough effect; inconclusive = small, poorly fitted or top-dose-only effect, or another doubt; inactive = no such curve, though single readings can be large or run the other way. Potencies of inconclusive entries are left out as doubtful fits.

Assay: qHTS Assay for Inhibitors of Hepatitis C Virus (HCV)
Conditions: Huh7.5.1 HCVcc-Cre (HCVcc is cell-culture hepatitis C virus) infection, luciferase reporter, 44 h; activity change, negative = inhibition: at 41.8 µM (top of the series) unless noted
Method in brief: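 Seed cells (1,000/well) for 4 h; treat with compound and infect with HCVcc-Cre, moi about 0.5. Incubate 44 h, then detect luciferase activity.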
% is set by controls: 0 for no effect and ±100 for the full control effect; potency is the fitted concentration of half-maximal effect; tags give direction and shape of the fitted curve.

Question: With `CCC(COC(=O)Nc1cccc(C)c1C)NC(=O)OCC(C)C` (configuration not stated) as the compound, how does the Potency read?
Answer: inconclusive [inhibitor, partial curve]

Question: For `CN1CCN(/N=C/c2nc(-c3ccc(Cl)cc3)n3ccccc23)CC1`, which “activity change, negative = inhibition” value is on record?
Answer: inactive: -0.389%

Question: Which Potency does the source give for `C=CCN(CC=C)c1nc2ccccc2nc1C(C#N)C(=O)OCCOC` (configuration not stated) here?
Answer: inconclusive [inhibitor, partial curve]

Question: With `O=C(/C=C/c1ccc(N2CCC(c3ccccc3)=N2)cc1)c1ccccc1` as the compound, how does the Potency read?
Answer: inconclusive [inhibitor, partial curve]

Question: With `Cc1cc(C)n2nc(SC(C)C(=O)Nc3ccc(Cl)cn3)nc2n1` (configuration not stated) as the compound, how does the Potency read?
Answer: inconclusive [inhibitor, full curve, poor fit]

Question: Which Potency does the source give for `O=C(COc1ccccc1Cl)Nc1ccc(N2CCCC2)cc1` here?
Answer: inconclusive [inhibitor, single point]

Question: For `Cc1cc(C)c(O)c(-c2cc(C(=O)Nc3ccc(S(=O)(=O)N4CCOCC4)cc3)[nH]n2)c1`, which Potency is on record?
Answer: active: 10 µM

Question: Which “activity change, negative = inhibition” value does the source give for `O=C(c1ccc(Cl)nc1)N1CCN(C/C=C/c2ccccc2)CC1` here?
Answer: inactive: -17.8%

Question: Which Potency does the source give for `Cc1cc(C)nc(/N=C2/NC(=O)CS2)n1` here?
Answer: inconclusive [inhibitor, single point]

Question: For `Cc1nn2c(-c3ccncc3)nnc2c2ccccc12`, which “activity change, negative = inhibition” value is on record?
Answer: inactive: 14.3%

Question: For `O=C(CN1CCOc2ccccc21)NC1CCN(Cc2ccccc2)CC1`, which Potency is on record?
Answer: inconclusive [inhibitor, single point]

Question: For `CC1=NN(c2nc3ccccc3[nH]2)C(=O)/C1=C/N(C)C`, which Potency is on record?
Answer: inconclusive [inhibitor, single point]

Question: Which Potency does the source give for `Cc1cc(C)c2nc(NNC(=O)c3ccc(S(=O)(=O)N4CCCCC4)cc3)sc2c1` here?
Answer: active: 6.31 µM

Question: For `O=C1Nc2ccccc2/C1=C/C(=O)c1cccs1`, which Potency is on record?
Answer: inconclusive [inhibitor, single point]

Question: For `COC(=O)N/N=C/c1ccc(OS(=O)(=O)c2ccc(C)cc2)c(OC)c1`, which “activity change, negative = inhibition” value is on record?
Answer: inactive: 0.353%

Question: With `O=C(NCc1cn(-c2ccccc2)nc1-c1ccccc1)c1cc([N+](=O)[O-])cc([N+](=O)[O-])c1` as the compound, how does the “activity change, negative = inhibition” value read?
Answer: inactive: 8.81%

Question: With `CCn1c(SCc2nc3scc(-c4ccccc4)c3c(=O)[nH]2)nnc1-c1cccs1` as the compound, how does the Potency read?
Answer: inconclusive [inhibitor, single point]

Question: For `CCc1nc2ccccc2c(C(=O)Oc2cccc3cccnc23)c1C`, which Potency is on record?
Answer: active: 2.24 µM

Question: With `COc1ccc2oc(C(=O)OCC(=O)/C(C#N)=C(\C)N)c(C)c2c1` as the compound, how does the Potency read?
Answer: inconclusive [inhibitor, single point]

Question: Which Potency does the source give for `CCc1ccc(OCC(O)CN2CCC(CN3C(=O)c4cccc5cccc(c45)C3=O)CC2)cc1` (configuration not stated) here?
Answer: active: 6.31 µM

Question: For `COc1ccc(OC)c(NC(=O)c2cccc(NC(=O)c3ccccc3C(=O)O)c2)c1`, which Potency is on record?
Answer: inconclusive [inhibitor, partial curve]

Question: For `CCOC(=O)c1ccc(N2CCOCC2)c(NC(=O)c2c(-c3ccccc3)noc2C)c1`, which Potency is on record?
Answer: inconclusive [inhibitor, partial curve]

Question: Which Potency does the source give for `Cc1ccccc1C(=O)N1CCC(C(=O)Nc2ccc(C)c(S(=O)(=O)N3CCCCC3)c2)CC1` here?
Answer: active: 10 µM

Question: With `COc1cc(/C=C/c2nc(-c3ccccc3O)n[nH]2)cc(OC)c1OC` as the compound, how does the Potency read?
Answer: active: 11.2 µM

Question: Which “activity change, negative = inhibition” value does the source give for `CCOC(=O)N1CCN(C(=O)CSCc2ccc(Br)cc2)CC1` here?
Answer: inactive: 6.66%

Question: For `CCS(=O)(=O)c1nc(S(=O)(=O)c2ccc(C)cc2)c(NCCCN2CCOCC2)s1`, which “activity change, negative = inhibition” value is on record?
Answer: inactive: -12.4%

Question: Which Potency does the source give for `O=C(Nc1ccccc1)c1c(F)c(F)c(F)c(F)c1F` here?
Answer: inconclusive [inhibitor, single point]

Question: Which “activity change, negative = inhibition” value does the source give for `CC1CCN(c2ccc(NC(=O)c3ccccc3[N+](=O)[O-])cc2)CC1` here?
Answer: inactive: -15.5%

Question: With `Cn1c(=O)n(C)c2cc([N+](=O)[O-])c(N3CCN(S(=O)(=O)c4ccc5ccccc5c4)CC3)cc21` as the compound, how does the Potency read?
Answer: inconclusive [inhibitor, partial curve]

Question: With `Cc1ccsc1C(=O)OCC(=O)NC1CCCC1` as the compound, how does the Potency read?
Answer: inconclusive [inhibitor, single point]

Question: With `Cc1ccc(-c2csc(NC(=O)CCNC(=O)c3ccccc3Cl)n2)cc1` as the compound, how does the Potency read?
Answer: inconclusive [inhibitor, partial curve]

Question: With `CCc1ccc2c(c1)cc(CN(Cc1ccco1)C(C)=O)c1nnnn12` as the compound, how does the Potency read?
Answer: inconclusive [inhibitor, single point]

Question: For `COc1ccc(-n2nc(C(=O)NCC(=O)N3CCCCCC3)c3ccccc3c2=O)cc1Cl`, which Potency is on record?
Answer: active: 11.2 µM

Question: With `CCC12CCC3c4ccc(O)cc4CCC3C1CC(O)C2O` (configuration not stated) as the compound, how does the Potency read?
Answer: inconclusive [inhibitor, single point]

Question: For `Cc1ccc(-n2ncc3c2CCCC3NC(=O)c2ocnc2C)cc1C` (configuration not stated), which Potency is on record?
Answer: inconclusive [inhibitor, full curve]

Question: With `Nc1ncnc2c1ncn2[C@@H]1O[C@H](CNS(=O)(=O)c2ccc3c(c2)CCN(C(=O)C(F)(F)F)C3)[C@@H](O)[C@H]1O` as the compound, how does the “activity change, negative = inhibition” value read?
Answer: inactive: -8.25%

Question: Which Potency does the source give for `COc1ccc(NC(=O)c2ccc(OCC3CCCO3)cc2)cc1Cl` (configuration not stated) here?
Answer: inconclusive [inhibitor, partial curve]

Question: With `CN(C)/C=N/c1sc2c(c1C#N)CCCCC2` as the compound, how does the Potency read?
Answer: inconclusive [inhibitor, single point]

Question: With `COc1cccc2sc(N(CCCN(C)C)C(=O)C(c3ccccc3)c3ccccc3)nc12` as the compound, how does the Potency read?
Answer: active: 12.6 µM

Question: Which “activity change, negative = inhibition” value does the source give for `COC(=O)c1ccc(NC(=O)CSc2nncn2C)cc1` here?
Answer: inactive: 2.8%

Question: For `CCc1ccc(NC(=O)CSc2ccc(-c3ccccn3)nn2)cc1`, which Potency is on record?
Answer: inconclusive [inhibitor, partial curve]

Question: Which “activity change, negative = inhibition” value does the source give for `CCN(CC)C(=O)C1CCCN(C(=O)CCn2nnnc2CN2CCOCC2)C1` (configuration not stated) here?
Answer: inactive: 22%

Question: Which “activity change, negative = inhibition” value does the source give for `COc1ccc(NC(=O)c2ccc3c(SCC(=O)O)c4c(nc3c2)CCCC4)c(OC)c1` here?
Answer: inactive: 0.87%

Question: With `O=C(CCN1C(=O)/C(=C/c2ccccc2Cl)SC1=S)NNC(=O)c1cccnc1` as the compound, how does the “activity change, negative = inhibition” value read?
Answer: inactive: -7.68%

Question: With `O=C(NC(=S)NC1CCCc2ccccc21)c1ccco1` (configuration not stated) as the compound, how does the Potency read?
Answer: inconclusive [inhibitor, single point]

Question: Which Potency does the source give for `O=C(NCCSCc1ccc(Cl)cc1Cl)c1ccc(CN2CCOCC2)cc1` here?
Answer: active: 11.2 µM

Question: Which Potency does the source give for `CCOc1ccccc1NC(=O)c1cc(C(=O)c2cc(Br)ccc2O)coc1=N` here?
Answer: inconclusive [inhibitor, partial curve]
